Results taken from PubChem BioAssay AID686978 (National Center for Advancing Translational Sciences (NCATS), 2013).
Among all 420,000 compounds or so, about 64,000 (15%) were called active. This list was built around the results that the source calls inconclusive (neither active nor inactive); the mix of calls is not that of the screen. Calls come from the whole dose curve; as a rule, active = well fitted inhibition curve with a large enough effect; inconclusive = small, poorly fitted or top-dose-only effect; inactive = flat fitted curve, though single readings scatter. No potency is given beside an inconclusive call; the fits are too rough.

test: qHTS for Inhibitors of human tyrosyl-DNA phosphodiesterase 1 (TDP1): qHTS in cells in absence of CPT; settings: DT40 Tdp1-/- hTDP1 cells, no CPT, ATP luminescence, 48 h; activity change, negative = growth inhibition: at 46.2 µM (top of the series) unless noted; note: nearly all actives have a fitted effect of over 55% in size
Summary of the method: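 Cells were dispensed at 400 per well, compounds added by pin tool, plates incubated ≥48 hr at 37 °C, then CellTiter-Glo added for 30 min at room temperature before luminescence reading. Line: DT40 Tdp1-/- complemented with hTDP1; camptothecin omitted.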
% is set by controls: 0 for no effect and ±100 for the full control effect; potency is the fitted concentration of half-maximal effect; tags give direction and shape of the fitted curve.

Row | SMILES | Potency | activity change, negative = growth inhibition
1 | CSc1ccc(CN2CCN(Cc3ccccc3Cl)CC2)cc1 | inconclusive [inhibitor, single point] | 
2 | Clc1ccccc1N1CCN(Cc2ccc3c(c2)OCO3)CC1 | inconclusive [inhibitor, single point] | 
3 | O=C1/C(=C\c2ccc(Cl)cc2Cl)N2CCC1CC2 | inconclusive [inhibitor, single point] | 
4 | COC(=O)C1=C(c2ccc(S(C)(=O)=O)cc2)C[C@@H]2CC[C@H]1N2C(=O)N1CCC(C)CC1 |  | inconclusive: -30.8% [inhibitor]
5 | CC(C(=O)c1cn(C)c2ccccc12)c1ccccc1 (stereo unspecified) | inconclusive [inhibitor, single point] | 
6 | Cc1cc2n(n1)C(c1cc(C(C)(C)C)c(O)cc1O)Nc1ccccc1-2 (stereo unspecified) | inconclusive [inhibitor, single point] | 
7 | Cc1ccccc1CN1C(=O)CN=C(c2ccccc2)c2cc(Cl)ccc21 | active: 18.4 µM | 
8 | Cc1[nH]c2ccc(OC(F)(F)F)cc2c1CCNCc1ccc(Cl)cc1 | active: 14.6 µM | 
9 | COc1cccc(C(=O)C2CCCN(C3CCOCC3)C2)c1 (stereo unspecified) |  | inactive: -5.65%
10 | C=C1C2C[C@]3(C4CC5[C@@]6(C)CC[C@H](O)[C@@]5(C3CC2=O)C4[N+]([O-])(CC)C6)[C@@H]1O (stereo partly specified) |  | inactive: -7.55% [at 9.04 µM]
11 | CN1CCN(c2cc3c(cc2F)c(=O)c(C(=O)O)cn3-c2ccc(F)cc2)CC1 | active: 23.7 µM | 
12 | O=C(CNC(=O)OCc1ccccc1)Nc1ccc(Br)cc1C(=O)c1ccccc1Cl | inconclusive [inhibitor, single point] | 
13 | COc1ccc2[nH]c3c(c2c1)CCNC3C (stereo unspecified) | inactive | 
14 | COc1cccc(C(=O)C2CCCN(Cc3ccon3)C2)c1 (stereo unspecified) |  | inactive: -24.5%
15 | CCCCCCOc1ccc(CN2CCN(CC)CC2)cc1 | active: 23.1 µM | 
16 | COC(=O)C1=C(c2ccccc2)C[C@@H]2CC[C@H]1N2C(=O)NCCCOC(C)C |  | inactive: -7.84%
17 | COC(=O)C1=C(c2ccc(C(C)=O)cc2)C[C@@H]2CC[C@H]1N2C(=O)NCc1ccc(C(F)(F)F)cc1 | inconclusive [inhibitor, single point] | 
18 | c1ccc2nc3ccccc3cc2c1 | active: 12.6 µM | 

Row | SMILES | Potency | activity change, negative = growth inhibition
19 | O=P(NC(c1ccccc1)c1ccccc1)(Oc1ccccc1)Oc1ccccc1 | inconclusive [inhibitor, single point] | 
20 | CN(C)c1ccc(C(O)P(=O)(OCc2ccccc2)c2ccc(N(C)C)cc2)cc1 (stereo unspecified) | inconclusive [inhibitor, partial curve] | 
21 | Cc1cccc(OCC(=O)N2CCN(Cc3ccc4c(c3)OCO4)CC2)c1 |  | inconclusive: -32.6% [inhibitor]
22 | Cc1nc2cc(-c3cccc(F)c3)nn2c(C)c1CCC(=O)N1CCC2(CC1)OCCO2 | inconclusive [inhibitor, single point] | 
23 | C[C@@H]1C[C@@H]2O[C@H]2/C=C\C=C\C(=O)Cc2c(Cl)c(O)cc(O)c2C(=O)O1 | active: 0.164 µM | 
24 | CCCSc1cc(OC)c(CCN)cc1OC | active: 2.91 µM | 
25 | O=C1NC(=O)C(CCc2ccncc2)(Cc2ccc(OCc3ccccc3)cc2)C(=O)N1 |  | inactive: -6.39%
26 | c1ccc(N2[C@@H]3CC[C@H]2c2ccccc2C3)cc1 | inconclusive [inhibitor, partial curve] | 
27 | CC12Cc3cnoc3C=C1CCC1C2CCC2(C)C1CCC2(C)O (stereo unspecified) | inconclusive [inhibitor, single point] | 
28 | O=C(CCl)Nc1sccc1C(=O)c1ccccc1 | inconclusive [inhibitor, single point] | 
29 | CCOc1cc2c(cc1OCC)-n1cccc1C(c1c(O)cccc1OC)NC2 (stereo unspecified) | active: 10.3 µM | 
30 | CCOC(=O)[C@]12Cc3ccc(C)cc3[C@H]1N(C1CCCCC1)C(=O)c1cc(OC)ccc12 | active: 2.91 µM | 
31 | COC(=O)C1=C(c2ccccc2)C[C@@H]2CC[C@H]1N2C(=O)NCc1ccc(F)cc1 |  | inactive: -19%
32 | CCN(CC)c1nc2ccccc2nc1C(=O)Nc1cccc(C(C)=O)c1 | inconclusive [inhibitor, partial curve] | 
33 | CCC(C)N1C(=O)/C(=C\c2cnc(N(C)C)nc2)C(=O)NC1=S (stereo unspecified) |  | inconclusive: -35.7% [inhibitor]
34 | COc1ccc(OC)c(-n2c(O)c(/C=C3\C(C)=Nc4ccccc43)c(=O)[nH]c2=O)c1 |  | inactive: -13.1%
35 | O=c1cccc2n1CC1CC2CN(S(=O)(=O)c2ccccc2)C1 (stereo unspecified) |  | inactive: -6.03%
36 | COc1ccc(CCn2c(O)c(C=NCc3cccnc3)c(=O)[nH]c2=O)cc1OC | inconclusive [inhibitor, single point] | 
